pIC50: −log10 of the molar value. Where two headings read alike, the source gives them in different places. At least one peptide structure holds a part that was inferred or is arguable (an end, a ring closure or a residue). Marks after values point to notes of the source that are not given here. Some entries repeat one wording, which the source may state once for all of them. Where a SMILES comes first, the peptide text is derived from it.
Legend:
human chondrocytes = assay: IL-1-induced PGE2 synthesis in human chondrocytes (RIA); type: cell-based; details: peptides 10^-6M
piglet pial vessels = system: piglet pial vessels; design: species or system Yorkshire piglets; details: IL-1β 75 ng/ml
Protocol: Ex vivo vasomotor response on brain vessels was performed as described (Li et al., 1996; Hou et al., 2000; Hou et al., 2001; Hou et al., 2003). Brains were removed from Yorkshire piglets. Slices of cortex exposing the pial vessels were pinned to a wax base of a 20 ml bath containing Krebs buffer (pH 7.4) equilibrated with 95% O2, 5% CO2 and maintained at 37°C. Microvessels were visualized and recorded using a video camera mounted on a dissecting microscope. Vascular diameter was measured using a digital image analyzer. Vascular diameter was recorded before and after topical application of pre-constricting agent, U46619 (10^-7 M). After stabilization of preparation, the ligand (IL-1β, 75 ng/ml) was added until stable vasodilation was detected. Peptides were subsequently added at different concentrations from 10^-10 to 10^-5 M. Reversal of vasodilatation was visualized and measured as previously described (Hou, et al. 2000; Hou et al. 2001; Hou et al. 2003); triplicate measurements were conducted on 2 animals.

[1] = system: piglet brain microvascular endothelial cells; assay: IL-1-induced PGE2 synthesis in brain microvascular endothelial cells (RIA); type: cell-based, porcine; details: for efficacy / activity on IL-1-induced PGE2 synthesis compared to parent peptide API-101, in words: peptides 10^-6M
[2] = system: rat model of Inflammatory Bowel Disease; assay: TNBS rat model of inflammatory bowel disease, 48 hours (Example 6): MPO, macroscopic and histologic evaluation; type: in vivo, rats
[3] = intermittent injection ip, dose 0.05-BID mg/kg/d
[4] = intermittent injection ip, dose 0.2-BID mg/kg/d
[5] = intermittent injection ip, dose 0.5-BID (0.50-BID) mg/kg/d
[6] = intermittent injection ip, dose 1.0-BID mg/kg/d
[7] = intrarectal administration, dose 1.0-BID mg/kg/d
[8] = intrarectal administration, dose 2.5-BID mg/kg/d
[9] = Figure 26, assay not stated, PGE2 screening assay assumed

`CC(C)C[C@@H](NC(=O)[C@@H](CCC(=O)O)NC(=O)[C@H](NC(=O)[C@H](NC(=O)[C@@H](Cc1ccc(O)cc1)NC(=O)[C@@H](CCCNC(=N)N)NC(=O)[C@@H](C)NC(=O)[C@@H](C)N)[C@H](C)O)C(C)C)C(=O)N[C@H](C)C(=O)O` [API-101.1] was tested, and the “efficacy / activity on IL-1-induced PGE2 synthesis compared to parent peptide API-101, in words” value (human chondrocytes) was “slightly improved efficacy”, the “effect on IL-1β-induced vasodilation, in words” value (from here on “effect”) (piglet pial vessels) was “reversed the vasodilation” and the “efficacy / activity on IL-1-induced PGE2 synthesis compared to parent peptide API-101, in words” value ([1]; endothelial cells) was “slightly improved efficacy”.

With `CC(C)C[C@@H](NC(=O)[C@@H](CCC(=O)O)NC(=O)[C@H](NC(=O)[C@H](NC(=O)[C@@H](C)NC(=O)[C@@H](CCCNC(=N)N)NC(=O)[C@H]1CCCN1C(=O)[C@@H](C)N)[C@H](C)O)C(C)C)C(=O)N[C@H](C)C(=O)O` [API-101.3] the “effect” value (piglet pial vessels) was “reversed the vasodilation”.

`CC(C)C[C@@H](NC(=O)[C@@H](CCC(=O)O)NC(=O)[C@@H](C)NC(=O)[C@H](NC(=O)[C@@H](Cc1ccc(O)cc1)NC(=O)[C@@H](CCCNC(=N)N)NC(=O)[C@H]1CCCN1C(=O)[C@@H](C)N)[C@H](C)O)C(=O)N[C@H](C)C(=O)O` [API-101.5] was tested, and the “efficacy / activity on IL-1-induced PGE2 synthesis compared to parent peptide API-101, in words” value (human chondrocytes) was “lost almost all activity” and the “efficacy / activity on IL-1-induced PGE2 synthesis compared to parent peptide API-101, in words” value ([1]; endothelial cells) was “lost almost all activity”.

`CC(C)[C@@H](NC(=O)[C@H](NC(=O)[C@@H](Cc1ccc(O)cc1)NC(=O)[C@@H](CCCNC(=N)N)NC(=O)[C@H]1CCCN1C(=O)[C@@H](C)N)[C@H](C)O)C(=O)N[C@H](CCC(=O)O)C(=O)N[C@H](C)C(=O)N[C@H](C)C(=O)O` [API-101.7] was tested, and the “efficacy / activity on IL-1-induced PGE2 synthesis compared to parent peptide API-101, in words” value (human chondrocytes) was “lost almost all activity” and the “efficacy / activity on IL-1-induced PGE2 synthesis compared to parent peptide API-101, in words” value ([1]; endothelial cells) was “lost almost all activity”.

With `CC(C)C[C@@H](NC(=O)[C@@H](CCC(=O)O)NC(=O)[C@H](NC(=O)[C@H](N)[C@H](C)O)C(C)C)C(=O)N[C@H](C)C(=O)O` [API-101.12, TVELA] (HELM PEPTIDE1{[dT].[dV].[dE].[dL].[dA]}$$$$V2.0) the “effect” value (piglet pial vessels) was “better IC50 than API-101”.

For `CC(C)C[C@@H](NC(=O)[C@@H](CCC(=O)O)NC(=O)[C@H]1CC[C@H]2CC[C@@H](NC(=O)[C@@H](Cc3ccc(O)cc3)NC(=O)[C@H](N)CCCNC(=N)N)C(=O)N21)C(=O)N[C@H](C)C(N)=O` [API-101.110, RY(I^2aa)ELA], the pIC50 ([1]; Figure 26, assay not stated, PGE2 screening assay assumed, read-out: activity / IC50) was 11.00, the “efficacy relative to API-101.107” value ([1]; endothelial cells) was “twice the efficacy” and the “potency relative to API-101.107” value ([1]; endothelial cells) was 10 fold.

With `CC(C)C[C@@H](NC(=O)[C@@H](CCC(=O)O)NC(=O)[C@H]1CCCN1C(=O)[C@H](NC(=O)[C@@H](Cc1ccc(O)cc1)NC(=O)[C@H](N)CCCNC(=N)N)[C@H](C)O)C(=O)O` [API-101.113, RYTPEL] the “MPO (% of TNBS+Saline)” value [2, 3] was 57 % of TNBS+Saline, the “macroscopic evaluation (median score)” value [2, 3] was 1.25^† and the “MPO (% of TNBS+Saline)” value [2, 4] was 112 % of TNBS+Saline. For the same compound, the “histologic evaluation (median score)” value [2, 4] was 2.6, the “macroscopic evaluation (median score)” value [2, 4] was 1.13 and the “MPO (% of TNBS+Saline)” value [2, 5] was 45 % of TNBS+Saline. The “macroscopic evaluation (median score)” value [2, 5] was 0.75^†, the “MPO (% of TNBS+Saline)” value [2, 6] was 67 % of TNBS+Saline and the “macroscopic evaluation (median score)” value [2, 6] was 1.75. For the same compound, the “MPO (% of TNBS+Saline)” value [2, 7] was 31 % of TNBS+Saline, the “macroscopic evaluation (median score)” value [2, 7] was 1.5 and the “MPO (% of TNBS+Saline)” value [2, 8] was 20 % of TNBS+Saline. For the same compound, the “macroscopic evaluation (median score)” value [2, 8] was 1.75, the “efficacy of intermittent administration compared with dexamethasone, Remicade and 5-ASA, in words” value ([2]; twice a day administration) was “dose-dependent efficacy” and the pIC50 ([1]; Table 4, read-out: PGE2 synthesis in endothelial cells (porcine) IC50) was 11.13.

`CC(C)C[C@@H](NC(=O)[C@@H](CCC(=O)O)NC(=O)[C@H]1CC[C@H]2CC[C@@H](NC(=O)[C@@H](Cc3ccc(O)cc3)NC(=O)[C@H](N)CCCNC(=N)N)C(=O)N21)C(N)=O` [TTI-101.124, ry[R-I2aa]el] was tested, and the efficacy [1, 9] was 100%.

For `CC(C)C[C@@H](NC(=O)[C@@H](CCC(=O)O)NC(=O)[C@H]1CC[C@H]2CC[C@@H](NC(=O)[C@@H](Cc3ccc(O)cc3)NC(=O)[C@H](N)CCCN)C(=O)N21)C(=O)N[C@H](C)C(N)=O` [TTI-101.125, (D-orn)y[R-I2aa]ela], the efficacy [1, 9] was 100%.

Reference: patent publication EP1751175B1, “INTERLEUKIN-1 RECEPTOR ANTAGONISTS, COMPOSITIONS, AND METHODS OF TREATMENT” (VALORISATION-RECHERCHE, Société en Commandite, priority 2004, dated 2005)
